The source gives many values for each of these; only a part stands here.
Experiments:
Parameters in all cases: dose 20 mg/kg, dosed compound name [14C]Sunitinib
Details in all cases: in vivo, po
[1] = Drug concentration in male albino rat lymph node assessed as radioactivity per gram of tissue at 20 mg/kg administered as single dose via gastric gavage measured after 24 hrs by autoradiographic analysis; assay type: ADME, organism-based
[2] = Drug concentration in male Lister Hooded pigmented rat bladder assessed as radioactivity per gram of tissue at 20 mg/kg administered as single dose via gastric gavage measured after 24 hrs by autoradiographic analysis; assay type: ADME, organism-based, Urinary bladder
[3] = Drug concentration in male Lister Hooded pigmented rat bone marrow assessed as radioactivity per gram of tissue at 20 mg/kg administered as single dose via gastric gavage measured after 24 hrs by autoradiographic analysis; assay type: ADME, organism-based
[4] = Drug concentration in male Lister Hooded pigmented rat brown fat assessed as radioactivity per gram of tissue at 20 mg/kg administered as single dose via gastric gavage measured after 24 hrs by autoradiographic analysis; assay type: ADME, organism-based, Brown adipose tissue
[5] = Drug concentration in female albino rat pituitary gland assessed as radioactivity per gram of tissue at 20 mg/kg administered as single dose via gastric gavage measured after 3 hrs by autoradiographic analysis; assay type: ADME, organism-based
[6] = Drug concentration in female albino rat preputial gland assessed as radioactivity per gram of tissue at 20 mg/kg administered as single dose via gastric gavage measured after 3 hrs by autoradiographic analysis; assay type: ADME, organism-based
[7] = Drug concentration in female albino rat lachrymal gland assessed as radioactivity per gram of tissue at 20 mg/kg administered as single dose via gastric gavage measured after 3 hrs by autoradiographic analysis; assay type: ADME, organism-based
[8] = Drug concentration in male Lister Hooded pigmented rat thyroid gland assessed as radioactivity per gram of tissue at 20 mg/kg administered as single dose via gastric gavage measured after 24 hrs by autoradiographic analysis; assay type: ADME, organism-based
[9] = Drug concentration in male Lister Hooded pigmented rat preputial gland assessed as radioactivity per gram of tissue at 20 mg/kg administered as single dose via gastric gavage measured after 24 hrs by autoradiographic analysis; assay type: ADME, organism-based
[10] = Drug concentration in male albino rat bone marrow assessed as radioactivity per gram of tissue at 20 mg/kg administered as single dose via gastric gavage measured after 6 hrs by autoradiographic analysis; assay type: ADME, organism-based
[11] = Drug concentration in male albino rat brown fat assessed as radioactivity per gram of tissue at 20 mg/kg administered as single dose via gastric gavage measured after 6 hrs by autoradiographic analysis; assay type: ADME, organism-based, Brown adipose tissue
[12] = Drug concentration in male albino rat salivary gland assessed as radioactivity per gram of tissue at 20 mg/kg administered as single dose via gastric gavage measured after 6 hrs by autoradiographic analysis; assay type: ADME, organism-based
[13] = Drug concentration in male albino rat pituitary gland assessed as radioactivity per gram of tissue at 20 mg/kg administered as single dose via gastric gavage measured after 3 hrs by autoradiographic analysis; assay type: ADME, organism-based
[14] = Drug concentration in male albino rat preputial gland assessed as radioactivity per gram of tissue at 20 mg/kg administered as single dose via gastric gavage measured after 3 hrs by autoradiographic analysis; assay type: ADME, organism-based
[15] = Drug concentration in male Lister Hooded pigmented rat lymph node assessed as radioactivity per gram of tissue at 20 mg/kg administered as single dose via gastric gavage measured after 168 hrs by autoradiographic analysis; assay type: ADME, organism-based
[16] = Drug concentration in male Lister Hooded pigmented rat salivary gland assessed as radioactivity per gram of tissue at 20 mg/kg administered as single dose via gastric gavage measured after 168 hrs by autoradiographic analysis; assay type: ADME, organism-based
[17] = Drug concentration in female albino rat uterus assessed as radioactivity per gram of tissue at 20 mg/kg administered as single dose via gastric gavage measured after 3 hrs by autoradiographic analysis; assay type: ADME, organism-based
[18] = Drug concentration in female albino rat brown fat assessed as radioactivity per gram of tissue at 20 mg/kg administered as single dose via gastric gavage measured after 6 hrs by autoradiographic analysis; assay type: ADME, organism-based, Brown adipose tissue
[19] = Drug concentration in female albino rat lachrymal gland assessed as radioactivity per gram of tissue at 20 mg/kg administered as single dose via gastric gavage measured after 6 hrs by autoradiographic analysis; assay type: ADME, organism-based
[20] = Drug concentration in male Lister Hooded pigmented rat testis assessed as radioactivity per gram of tissue at 20 mg/kg administered as single dose via gastric gavage measured after 168 hrs by autoradiographic analysis; assay type: ADME, organism-based
[21] = Drug concentration in male Lister Hooded pigmented rat thyroid gland assessed as radioactivity per gram of tissue at 20 mg/kg administered as single dose via gastric gavage measured after 168 hrs by autoradiographic analysis; assay type: ADME, organism-based
[22] = Drug concentration in male Lister Hooded pigmented rat uveal tract assessed as radioactivity per gram of tissue at 20 mg/kg administered as single dose via gastric gavage measured after 168 hrs by autoradiographic analysis; assay type: ADME, organism-based
[23] = Drug concentration in male Lister Hooded pigmented rat testis assessed as radioactivity per gram of tissue at 20 mg/kg administered as single dose via gastric gavage measured after 336 hrs by autoradiographic analysis; assay type: ADME, organism-based
[24] = Drug concentration in male Lister Hooded pigmented rat uveal tract assessed as radioactivity per gram of tissue at 20 mg/kg administered as single dose via gastric gavage measured after 336 hrs by autoradiographic analysis; assay type: ADME, organism-based
[25] = Drug concentration in male Lister Hooded pigmented rat eye assessed as radioactivity per gram of tissue at 20 mg/kg administered as single dose via gastric gavage measured after 168 hrs by autoradiographic analysis; assay type: ADME, organism-based
[26] = Drug concentration in female albino rat uveal tract assessed as radioactivity per gram of tissue at 20 mg/kg administered as single dose via gastric gavage measured after 72 hrs by autoradiographic analysis; assay type: ADME, organism-based
[27] = Drug concentration in male albino rat pituitary gland assessed as radioactivity per gram of tissue at 20 mg/kg administered as single dose via gastric gavage measured after 24 hrs by autoradiographic analysis; assay type: ADME, organism-based
[28] = Drug concentration in male albino rat lachrymal gland assessed as radioactivity per gram of tissue at 20 mg/kg administered as single dose via gastric gavage measured after 72 hrs by autoradiographic analysis; assay type: ADME, organism-based
[29] = Drug concentration in male albino rat salivary gland assessed as radioactivity per gram of tissue at 20 mg/kg administered as single dose via gastric gavage measured after 72 hrs by autoradiographic analysis; assay type: ADME, organism-based
[30] = Drug concentration in female albino rat pituitary gland assessed as radioactivity per gram of tissue at 20 mg/kg administered as single dose via gastric gavage measured after 24 hrs by autoradiographic analysis; assay type: ADME, organism-based
[31] = Drug concentration in female albino rat thyroid gland assessed as radioactivity per gram of tissue at 20 mg/kg administered as single dose via gastric gavage measured after 24 hrs by autoradiographic analysis; assay type: ADME, organism-based
[32] = Drug concentration in female albino rat eye assessed as radioactivity per gram of tissue at 20 mg/kg administered as single dose via gastric gavage measured after 72 hrs by autoradiographic analysis; assay type: ADME, organism-based
[33] = Drug concentration in male albino rat brown fat assessed as radioactivity per gram of tissue at 20 mg/kg administered as single dose via gastric gavage measured after 24 hrs by autoradiographic analysis; assay type: ADME, organism-based, Brown adipose tissue
[34] = Drug concentration in female Lister Hooded pigmented rat uterus assessed as radioactivity per gram of tissue at 20 mg/kg administered as single dose via gastric gavage measured after 24 hrs by autoradiographic analysis; assay type: ADME, organism-based
[35] = Drug concentration in female Lister Hooded pigmented rat eye assessed as radioactivity per gram of tissue at 20 mg/kg administered as single dose via gastric gavage measured after 72 hrs by autoradiographic analysis; assay type: ADME, organism-based
[36] = Drug concentration in female Lister Hooded pigmented rat uveal tract assessed as radioactivity per gram of tissue at 20 mg/kg administered as single dose via gastric gavage measured after 72 hrs by autoradiographic analysis; assay type: ADME, organism-based

A Radiolabel recovery [1] of 0.9 ugequiv, a Radiolabel recovery [2] of 0.48 ugequiv and a Radiolabel recovery [3] of 0.55 ugequiv were found for CCN(CC)CCNC(=O)c1c(C)[nH]c(/[14CH]=C2\C(=O)Nc3ccc(F)cc32)c1C.O=C(O)C[C@H](O)C(=O)O in this work. It also gave a Radiolabel recovery [4] of 0.85 ugequiv, a Radiolabel recovery [5] of 21.58 ugequiv and a Radiolabel recovery [6] of 17.74 ugequiv. The Radiolabel recovery [7] was 24.12 ugequiv, the Radiolabel recovery [8] was 0.72 ugequiv and the Radiolabel recovery [9] was 7.53 ugequiv. The Radiolabel recovery [10] was 6.6 ugequiv, the Radiolabel recovery [11] was 7.57 ugequiv and the Radiolabel recovery [12] was 12.14 ugequiv. The Radiolabel recovery [13] was 24.34 ugequiv, the Radiolabel recovery [14] was 12.6 ugequiv and the Radiolabel recovery [15] was 0.06 ugequiv. It also gave a Radiolabel recovery [16] of 0.06 ugequiv, a Radiolabel recovery [17] of 6.84 ugequiv and a Radiolabel recovery [18] of 9.42 ugequiv. The Radiolabel recovery [19] was 19.88 ugequiv, the Radiolabel recovery [20] was 0.91 ugequiv and the Radiolabel recovery [21] was 0.06 ugequiv. The Radiolabel recovery [22] was 111.78 ugequiv, the Radiolabel recovery [23] was 0.17 ugequiv and the Radiolabel recovery [24] was 100.17 ugequiv. The Radiolabel recovery [25] was 28.52 ugequiv, the Radiolabel recovery [26] was 0.45 ugequiv and the Radiolabel recovery [27] was 7.9 ugequiv. For the same molecule, the Radiolabel recovery [28] was 0.41 ugequiv, the Radiolabel recovery [29] was 0.14 ugequiv and the Radiolabel recovery [30] was 6.49 ugequiv. The Radiolabel recovery [31] was 2.65 ugequiv, the Radiolabel recovery [32] was 0.11 ugequiv and the Radiolabel recovery [33] was 0.46 ugequiv. It also gave a Radiolabel recovery [34] of 0.44 ugequiv, a Radiolabel recovery [35] of 40 ugequiv and a Radiolabel recovery [36] of 168.12 ugequiv.

— ChEMBL document CHEMBL3525900, “Pharmacokinetics, distribution, and metabolism of [14C]sunitinib in rats, monkeys, and humans” (Drug Metab Dispos, 2012)
